{
  "source": "paper PMC4336329",
  "about": "(PLoS ONE, 2015)",
  "note": "Screen size: about 310,000 compounds; about 14,000 (4.5%) showed an effect of 50% or more. The effect is printed as a negative number. The list shows a part of the results.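 Further: peak tail current of the secondary pulse compared with the same well before compound.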",
  "data": [
    {"target": "human ether-à-go-go-related gene (hERG) potassium channel (human, UniProt Q12809)", "sequence (Q12809 whole entry, looked up)": "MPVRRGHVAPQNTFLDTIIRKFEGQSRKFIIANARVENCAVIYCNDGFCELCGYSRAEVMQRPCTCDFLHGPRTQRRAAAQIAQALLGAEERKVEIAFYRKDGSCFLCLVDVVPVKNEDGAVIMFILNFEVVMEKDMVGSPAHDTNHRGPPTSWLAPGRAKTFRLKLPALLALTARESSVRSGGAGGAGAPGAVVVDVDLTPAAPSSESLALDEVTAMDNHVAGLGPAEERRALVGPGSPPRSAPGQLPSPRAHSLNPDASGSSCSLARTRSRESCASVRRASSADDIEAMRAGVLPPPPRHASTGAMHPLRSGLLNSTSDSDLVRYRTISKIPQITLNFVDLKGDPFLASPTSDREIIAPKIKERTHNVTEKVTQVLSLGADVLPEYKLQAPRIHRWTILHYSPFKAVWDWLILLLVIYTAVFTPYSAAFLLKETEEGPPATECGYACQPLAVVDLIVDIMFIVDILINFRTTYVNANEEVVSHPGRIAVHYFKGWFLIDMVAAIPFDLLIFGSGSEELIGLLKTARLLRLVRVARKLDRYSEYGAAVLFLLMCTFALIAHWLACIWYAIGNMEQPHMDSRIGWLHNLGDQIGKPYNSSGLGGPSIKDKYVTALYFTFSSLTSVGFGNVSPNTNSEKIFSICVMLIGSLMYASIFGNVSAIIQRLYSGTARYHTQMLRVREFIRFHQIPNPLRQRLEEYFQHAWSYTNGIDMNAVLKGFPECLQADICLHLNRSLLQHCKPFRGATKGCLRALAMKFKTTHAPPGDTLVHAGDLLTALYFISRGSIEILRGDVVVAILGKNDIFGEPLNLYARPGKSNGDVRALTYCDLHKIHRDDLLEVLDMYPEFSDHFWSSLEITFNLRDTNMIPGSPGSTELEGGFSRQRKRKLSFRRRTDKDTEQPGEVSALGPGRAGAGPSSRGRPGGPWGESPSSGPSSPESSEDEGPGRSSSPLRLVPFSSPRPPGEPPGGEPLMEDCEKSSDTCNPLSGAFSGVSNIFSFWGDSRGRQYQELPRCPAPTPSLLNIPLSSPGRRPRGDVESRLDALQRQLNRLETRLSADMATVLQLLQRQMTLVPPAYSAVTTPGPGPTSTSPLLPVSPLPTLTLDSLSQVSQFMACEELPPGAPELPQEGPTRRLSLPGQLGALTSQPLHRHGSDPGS", "assay": "primary screen, population patch clamp on CHO cells stably expressing hERG", "units": {"hERG current change (%, negative = inhibition) at 10uM": "%"}, "values": [
      {"smiles": "CCN(CC)c1ccc(/C=N/NC(=S)NC)c(O)c1", "hERG current change (%, negative = inhibition) at 10uM": -4.91},
      {"smiles": "CC(C)OC(=O)c1ccc(COC(=O)c2cccc(-c3nnc(-c4ccccc4)o3)c2)cc1", "hERG current change (%, negative = inhibition) at 10uM": -4.8},
      {"smiles": "CCCCN(C(=O)CCNC(=O)NC12CC3CC(CC(C3)C1)C2)c1c(N)n(CCC)c(=O)[nH]c1=O", "hERG current change (%, negative = inhibition) at 10uM": -17.7},
      {"smiles": "COc1ccccc1NC(=O)CN(Cc1ccco1)C(=O)c1ccc(-n2nc(C)cc2C)cc1", "hERG current change (%, negative = inhibition) at 10uM": -51.2},
      {"smiles": "CCOC(=O)C1(CCOc2ccccc2)CCN(Cc2ccc(OC)cc2)CC1", "hERG current change (%, negative = inhibition) at 10uM": -75.1},
      {"smiles": "CCOC(=O)Nc1nnc(-c2ccccc2OC)s1", "hERG current change (%, negative = inhibition) at 10uM": -0.581},
      {"smiles": "CSc1nc(-c2ccccc2)nc(N2CCN(C)CC2)c1C(C)=O", "hERG current change (%, negative = inhibition) at 10uM": -26.1},
      {"smiles": "O=C(c1ccco1)N1CCN(C(=O)c2oc(=O)c3ccccc3c2-c2ccccc2)CC1", "hERG current change (%, negative = inhibition) at 10uM": -50.7},
      {"smiles": "Nc1cc(N2CCCCC2)c([N+](=O)[O-])cc1Cl", "hERG current change (%, negative = inhibition) at 10uM": -11.2},
      {"smiles": "CC(C)NC(=S)NC(=O)/C=C/c1ccc(F)cc1", "hERG current change (%, negative = inhibition) at 10uM": 7.17},
      {"smiles": "CCN(CC)CCCN(C(=O)c1ccc(Br)cc1)c1nc(-c2ccc(OC)cc2)cs1.Cl", "hERG current change (%, negative = inhibition) at 10uM": -73.2},
      {"smiles": "CCCCNC(=O)c1ccc2c(c1)N(C)C(=O)c1ccccc1S2", "hERG current change (%, negative = inhibition) at 10uM": -27.6},
      {"smiles": "C=C(C)c1cccc(C(C)(C)NC(=O)N2CCN(CC(N)=O)CC2)c1", "hERG current change (%, negative = inhibition) at 10uM": 11.3},
      {"smiles": "COCCN(Cc1cc2ccc(C)cc2n2nnnc12)Cc1nnnn1C(C)(C)C", "hERG current change (%, negative = inhibition) at 10uM": -41},
      {"smiles": "Cc1cc(C)nc(-n2nc(C)c3c(=O)[nH]c(C(F)(F)F)nc32)n1", "hERG current change (%, negative = inhibition) at 10uM": 13.5},
      {"smiles": "O=C(c1ccc(S(=O)(=O)NCC2CCCO2)cc1)N1CCc2ccccc21", "note": "(stereo not drawn)", "hERG current change (%, negative = inhibition) at 10uM": -14.2},
      {"smiles": "c1ccc(-n2ncc3c(NCc4ccccn4)ncnc32)cc1", "hERG current change (%, negative = inhibition) at 10uM": 0.854},
      {"smiles": "COc1ccc(OCCOC(=O)CNS(=O)(=O)c2ccc(SC)c([N+](=O)[O-])c2)cc1", "hERG current change (%, negative = inhibition) at 10uM": -39.2},
      {"smiles": "CCC1(c2ccc(F)cc2)NC(=O)NC1=O", "note": "(stereo not drawn)", "hERG current change (%, negative = inhibition) at 10uM": 16.7},
      {"smiles": "CCCN1C(=O)S/C(=C\\c2ccc(N3CCOCC3)o2)C1=O", "hERG current change (%, negative = inhibition) at 10uM": -11.9},
      {"smiles": "COC(=O)C[C@H]1c2cc(C(F)(F)F)ccc2S(=O)(=O)N1C(C)(C)C", "hERG current change (%, negative = inhibition) at 10uM": 4.42},
      {"smiles": "COc1cc(C)c(CN2CCC(n3nccc3NC(=O)C3CCOC3)CC2)cc1C", "note": "(stereo not drawn)", "hERG current change (%, negative = inhibition) at 10uM": -18.2},
      {"smiles": "CCCN(C(=O)COC(=O)COc1c(C)cccc1C)c1c(N)n(Cc2ccccc2)c(=O)[nH]c1=O", "hERG current change (%, negative = inhibition) at 10uM": 15.5},
      {"smiles": "CCC1(C)Cc2c(C#N)c(N)sc(=S)c2CO1", "note": "(stereo not drawn)", "hERG current change (%, negative = inhibition) at 10uM": -4.32}
    ]}
  ]
}
